These results are taken from a collection of fitness landscapes (doi:10.1016/j.celrep.2020.107928).

Sequences and labels used below:
B1: Caulobacter ParB omega fusion; a variant is named by its letters at X, in order, B8GW30 (parent)
chain: MESVVVGEPGMSEGRRGLGRGLSALLGEVDAAPAQAPGEQLGGSREAPIEILQRNPDQPRRTFREEDLEDLSNSIREKGVLQPILVRPSPDTAGEYQIVAGERAWRAAQRAGLKTVPIMVRELDDLAVLEIGIIENVQRADLNVLEEALSYKVLMEKFERTQENIAQTIGKSXSHVANXMRLLXLPDEVQSYLVSGELTAXHARAIAAAADPVALAKQIIEGGLSVRETEALARKAPNLSAGKSKGGRPPRVKDTDTQALESDLSSVLGLDVSIDHRGSTGTLTITYATLEQLDDLCNRLTRGI

Whole data set: some 81,000 sequences, median “one-hybrid fitness for binding parS DNA” near -0.17, cut for the highest 2% near 0.51. The list shows a part of the results.

The variants in this assay derive from B1. Put plainly: one-hybrid fitness for binding parS DNA (scaled: cognate 1, non-cognate 0); higher = stronger binding. As to conditions: with parS DNA site. The method, boiled down: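 In E. coli USO, a HIS3 reporter with its site placed 19 bp from the promoter was used to select Caulobacter ParB variants randomised at four specificity codons. Growth lasted 48 hours at 37°C on histidine-free M9 containing 0.1 mM IPTG and 5 mM 3-AT. Fitness was taken as the log change in variant-to-wild-type read ratio from Illumina sequencing of pre- and post-selection plasmids, rescaled between the non-cognate and cognate sites.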
On to HSRE, for which the “one-hybrid fitness for binding parS DNA” value was not above 0.2. Consider ITYH, for which the “one-hybrid fitness for binding parS DNA” value was not above 0.2. As for STHR, the figure is not above 0.2; as for KGMR, not above 0.2; as for QMMW, not above 0.2. As to AIND, the “one-hybrid fitness for binding parS DNA” value was not above 0.2. The figure for CIIW is not above 0.2; for SVRM it is not above 0.2. For the variant AMQS, the “one-hybrid fitness for binding parS DNA” value is not above 0.2. Consider WSQT, for which the “one-hybrid fitness for binding parS DNA” value was not above 0.2.

As for LYPV, the “one-hybrid fitness for binding parS DNA” value is not above 0.2. On to VEAT, for which the “one-hybrid fitness for binding parS DNA” value is not above 0.2.

With HIRL, the “one-hybrid fitness for binding parS DNA” value was not above 0.2. As for FPHV, the figure is not above 0.2; as for KCVL, not above 0.2. As to TEGR, the “one-hybrid fitness for binding parS DNA” value was not above 0.2. LSFV: the “one-hybrid fitness for binding parS DNA” value is not above 0.2. As for YTHS, the “one-hybrid fitness for binding parS DNA” value is not above 0.2. Take HPDC: the “one-hybrid fitness for binding parS DNA” value is not above 0.2. Take RTIY: the “one-hybrid fitness for binding parS DNA” value came out at 0.418. Take CQGC: the “one-hybrid fitness for binding parS DNA” value is not above 0.2.

As for ISDP, the “one-hybrid fitness for binding parS DNA” value was not above 0.2. EFRL: the “one-hybrid fitness for binding parS DNA” value is not above 0.2. For YCRV, the “one-hybrid fitness for binding parS DNA” value is not above 0.2. PTTT: the “one-hybrid fitness for binding parS DNA” value was not above 0.2. As for QDEV, the figure is not above 0.2. For FPDQ, the “one-hybrid fitness for binding parS DNA” value is not above 0.2. The figure for WRFR is not above 0.2; for IPVG it is not above 0.2.

As for RWSH, the “one-hybrid fitness for binding parS DNA” value was not above 0.2. Consider TTQV, for which the “one-hybrid fitness for binding parS DNA” value was not above 0.2. Take IHGR: the “one-hybrid fitness for binding parS DNA” value is not above 0.2. In the case of QVIN, the “one-hybrid fitness for binding parS DNA” value is not above 0.2. Regarding DSVC, the “one-hybrid fitness for binding parS DNA” value was not above 0.2.

On to QMTK, for which the “one-hybrid fitness for binding parS DNA” value is not above 0.2. Regarding MRGF, the “one-hybrid fitness for binding parS DNA” value was not above 0.2. As to QTYA, the “one-hybrid fitness for binding parS DNA” value was not above 0.2.

RIYR: the “one-hybrid fitness for binding parS DNA” value was not above 0.2. Consider RALC, for which the “one-hybrid fitness for binding parS DNA” value came out at 0.968. Consider LRGR, for which the “one-hybrid fitness for binding parS DNA” value was not above 0.2.

LASK: the “one-hybrid fitness for binding parS DNA” value was not above 0.2. Consider GMYE, for which the “one-hybrid fitness for binding parS DNA” value was not above 0.2.

Regarding EASW, the “one-hybrid fitness for binding parS DNA” value is not above 0.2.

For YKDT, the “one-hybrid fitness for binding parS DNA” value was not above 0.2. Take QLCC: the “one-hybrid fitness for binding parS DNA” value was not above 0.2. ASDY: the “one-hybrid fitness for binding parS DNA” value was not above 0.2. Regarding ICKS, the “one-hybrid fitness for binding parS DNA” value was not above 0.2. For CKLT, the “one-hybrid fitness for binding parS DNA” value is not above 0.2. For DMPW, the “one-hybrid fitness for binding parS DNA” value is not above 0.2.

With RKCC, the “one-hybrid fitness for binding parS DNA” value was found to be 0.908.

Turning to MTPY, the “one-hybrid fitness for binding parS DNA” value was not above 0.2. As to PKCV, the “one-hybrid fitness for binding parS DNA” value is not above 0.2. With TVTV, the “one-hybrid fitness for binding parS DNA” value is not above 0.2. In the case of KHKG, the “one-hybrid fitness for binding parS DNA” value is not above 0.2.

Regarding SWYE, the “one-hybrid fitness for binding parS DNA” value is not above 0.2. As to CSLC, the “one-hybrid fitness for binding parS DNA” value is not above 0.2. As for MHPW, the figure is not above 0.2. Consider RYIY, for which the “one-hybrid fitness for binding parS DNA” value was 0.352. Take VKVS: the “one-hybrid fitness for binding parS DNA” value was not above 0.2. With SSLG, the “one-hybrid fitness for binding parS DNA” value is not above 0.2. Regarding GIIW, the “one-hybrid fitness for binding parS DNA” value is not above 0.2. On to SIHT, for which the “one-hybrid fitness for binding parS DNA” value was not above 0.2. The figure for RPWI is not above 0.2; for IHNR it is not above 0.2. Consider VIRD, for which the “one-hybrid fitness for binding parS DNA” value was 0.202. The figure for TEKG is not above 0.2. For FPPH, the “one-hybrid fitness for binding parS DNA” value was not above 0.2.

Take RHCQ: the “one-hybrid fitness for binding parS DNA” value is not above 0.2. In the case of TEGS, the “one-hybrid fitness for binding parS DNA” value is not above 0.2. On to CNRM, for which the “one-hybrid fitness for binding parS DNA” value is not above 0.2. For TSAF, the “one-hybrid fitness for binding parS DNA” value is not above 0.2.

Take QIFR: the “one-hybrid fitness for binding parS DNA” value was not above 0.2. For RHFW, the “one-hybrid fitness for binding parS DNA” value is not above 0.2. The figure for RAQM is 0.31; for IHVS it is not above 0.2. Regarding AFVL, the “one-hybrid fitness for binding parS DNA” value is not above 0.2. NQPR: the “one-hybrid fitness for binding parS DNA” value is not above 0.2. Consider AVLT, for which the “one-hybrid fitness for binding parS DNA” value is not above 0.2.

On to QKKS, for which the “one-hybrid fitness for binding parS DNA” value is not above 0.2. For RTDQ, the “one-hybrid fitness for binding parS DNA” value was not above 0.2.

For IGHL, the “one-hybrid fitness for binding parS DNA” value is not above 0.2. The figure for LINS is not above 0.2.

For PADI, the “one-hybrid fitness for binding parS DNA” value is not above 0.2.

As for ARRI, the “one-hybrid fitness for binding parS DNA” value was not above 0.2. PCHL: the “one-hybrid fitness for binding parS DNA” value was not above 0.2. Take PFLM: the “one-hybrid fitness for binding parS DNA” value was not above 0.2.

With HAYN, the “one-hybrid fitness for binding parS DNA” value is not above 0.2. Regarding MRVC, the “one-hybrid fitness for binding parS DNA” value is not above 0.2. CKRS: the “one-hybrid fitness for binding parS DNA” value is not above 0.2. Consider HLNC, for which the “one-hybrid fitness for binding parS DNA” value was not above 0.2. For TCPE, the “one-hybrid fitness for binding parS DNA” value is not above 0.2. As to TCNR, the “one-hybrid fitness for binding parS DNA” value is not above 0.2. FTHW: the “one-hybrid fitness for binding parS DNA” value is not above 0.2.

With RYWE, the “one-hybrid fitness for binding parS DNA” value is not above 0.2. Regarding NSLY, the “one-hybrid fitness for binding parS DNA” value was not above 0.2. For the variant NKIY, the “one-hybrid fitness for binding parS DNA” value is not above 0.2. As for LNFM, the figure is not above 0.2; as for AGDS, not above 0.2.
